From article PMC4336329 (PLoS ONE, 2015) come the findings set out here.

The campaign covered roughly 310,000 compounds. About 2,200 (0.71%) showed an effect of 50% or more. Effects have a minus sign here. The list shows a part of the results.

human ether-à-go-go-related gene (hERG) potassium channel, sequence (Q12809 whole entry, looked up): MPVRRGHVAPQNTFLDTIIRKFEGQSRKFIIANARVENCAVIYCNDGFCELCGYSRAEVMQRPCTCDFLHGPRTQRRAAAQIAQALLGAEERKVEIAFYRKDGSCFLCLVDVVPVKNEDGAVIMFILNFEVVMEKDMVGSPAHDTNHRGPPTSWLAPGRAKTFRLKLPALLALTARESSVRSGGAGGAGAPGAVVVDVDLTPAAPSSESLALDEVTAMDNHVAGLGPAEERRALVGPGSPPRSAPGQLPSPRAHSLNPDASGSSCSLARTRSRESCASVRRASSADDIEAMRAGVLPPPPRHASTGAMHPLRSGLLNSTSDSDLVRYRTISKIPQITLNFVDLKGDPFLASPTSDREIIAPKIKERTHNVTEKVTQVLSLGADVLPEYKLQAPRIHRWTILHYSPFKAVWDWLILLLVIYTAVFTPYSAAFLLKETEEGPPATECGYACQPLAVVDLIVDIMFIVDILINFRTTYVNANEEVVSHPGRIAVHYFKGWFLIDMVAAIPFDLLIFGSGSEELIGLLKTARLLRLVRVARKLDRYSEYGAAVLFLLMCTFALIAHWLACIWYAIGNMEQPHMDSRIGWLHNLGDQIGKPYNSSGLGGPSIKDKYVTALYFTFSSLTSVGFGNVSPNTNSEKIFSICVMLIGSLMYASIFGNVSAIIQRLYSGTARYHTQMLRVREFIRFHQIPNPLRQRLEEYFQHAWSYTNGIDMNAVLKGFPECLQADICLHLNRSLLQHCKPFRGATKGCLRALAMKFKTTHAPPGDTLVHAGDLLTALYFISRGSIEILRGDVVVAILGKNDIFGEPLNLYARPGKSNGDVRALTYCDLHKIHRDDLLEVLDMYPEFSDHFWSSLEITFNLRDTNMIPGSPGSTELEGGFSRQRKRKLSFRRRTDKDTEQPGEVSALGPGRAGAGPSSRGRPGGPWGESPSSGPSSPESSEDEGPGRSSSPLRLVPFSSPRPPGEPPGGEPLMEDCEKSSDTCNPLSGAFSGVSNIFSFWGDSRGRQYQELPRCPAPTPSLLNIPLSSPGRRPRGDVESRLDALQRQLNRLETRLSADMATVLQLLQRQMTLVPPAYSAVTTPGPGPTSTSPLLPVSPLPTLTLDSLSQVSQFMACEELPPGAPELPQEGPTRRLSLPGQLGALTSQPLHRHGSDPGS

The experiment concerns the target human ether-à-go-go-related gene (hERG) potassium channel (human, UniProt Q12809). Put plainly: primary screen, population patch clamp on CHO cells stably expressing hERG.
For the molecule `COc1ccc(NC(=O)CCN2CCCC(C)C2)cc1` (stereo not shown), the “hERG current change (%, negative = inhibition) at 1uM” value was -5.26%. The same measure for `O=C1CC(c2ccc(F)cc2)Cc2nc(N3CCOCC3)ncc21` (stereo not shown): 6.83%; for `Cc1cnn(CCC(=O)NNC(=S)Nc2ccc(F)cc2)c1`: 9.51%. Take `CC(C)N(CCNC(=O)C1CCC(=O)N1Cc1ccc(F)cc1)Cc1ccccc1` (stereo not shown): the “hERG current change (%, negative = inhibition) at 1uM” value was 0.186%.

Take `Cc1cccc(NC(=O)CSCC(=O)Nc2ccccc2C(=O)NC2CC2)c1`: the “hERG current change (%, negative = inhibition) at 1uM” value came out at 14.1%. Turning to `CNc1oc(-c2ccc(F)cc2)nc1S(=O)(=O)c1ccccc1`, the “hERG current change (%, negative = inhibition) at 1uM” value amounted to 6.56%. Turning to `CCCCNc1nnc(SCC(=O)c2c[nH]c3ccccc23)s1`, the “hERG current change (%, negative = inhibition) at 1uM” value amounted to 6.24%.

As to `CC(=O)c1ccc(OCC(=O)NC2CCCCCC2)cc1`, the “hERG current change (%, negative = inhibition) at 1uM” value stood at 10.9%.

Consider `Cc1cccc(-n2ncc3c2CCCC3NC(=O)C2=CC(=O)CC(C)(C)O2)c1C` (stereo not shown), for which the “hERG current change (%, negative = inhibition) at 1uM” value came to 6.55%.

In the case of `Cc1ccc(/C(C#N)=C\c2ccc(N3CCOCC3)o2)cc1`, the “hERG current change (%, negative = inhibition) at 1uM” value is 1.96%. Turning to `CCN(CC)CCNC(=O)/C(=C/c1cn(CC)c2ccccc12)NC(=O)c1cc(OC)c(OC)c(OC)c1`, the “hERG current change (%, negative = inhibition) at 1uM” value turned out to be 8.66%.

Take `CC(=O)Nc1ccc(S(=O)(=O)NNC(=O)c2sc(=S)n(C)c2C)cc1`: the “hERG current change (%, negative = inhibition) at 1uM” value turned out to be 3.98%.

With `COc1ccccc1S(=O)Cc1ccc(C(=O)NCc2ccccc2Cl)o1` (stereo not shown), the “hERG current change (%, negative = inhibition) at 1uM” value is given as -2.12%. With `O=C(CS(=O)(=O)c1ccccc1)Nc1cccnc1`, the “hERG current change (%, negative = inhibition) at 1uM” value is reported as 11.4%.

For `CCCC(=O)Nc1nnc(SCC(=O)NCc2ccc3c(c2)OCO3)s1`, the “hERG current change (%, negative = inhibition) at 1uM” value is 16.7%. Turning to `COc1ccccc1CN(C)CC(=O)NC1CCCc2ccccc21` (stereo not shown), the “hERG current change (%, negative = inhibition) at 1uM” value was determined as 5%. Consider `COc1ccc(C(CC(=O)O)NC(=O)C(c2ccccc2)c2ccccc2)cc1` (stereo not shown), for which the “hERG current change (%, negative = inhibition) at 1uM” value is 9.89%. Consider `COc1ccc(S(=O)(=O)N2CCCC2CNC(=O)C(=O)NCc2ccccc2)cc1` (stereo not shown), for which the “hERG current change (%, negative = inhibition) at 1uM” value came out at 3.48%. With `COCCCNC(=O)[C@H]1N2C(=O)c3ccccc3C2SC1(C)C` (stereo partly shown), the “hERG current change (%, negative = inhibition) at 1uM” value is listed as 6.69%. Take `O=C(CCN1C(=O)c2cccc3cccc(c23)C1=O)NCC1CCCO1` (stereo not shown): the “hERG current change (%, negative = inhibition) at 1uM” value is listed as 13.6%. To `C/C(Cc1ccccc1)=N/NC(=O)CNC(=O)C(c1ccccc1)c1ccccc1` belongs 3.64%; to `CCOC(=O)N1CCN(Cc2nc(N)nc(Nc3ccc(C)cc3)n2)CC1`, -37%.

Regarding `CCOc1ccc(C(=O)C2CCN(C(=O)c3ccccc3C(=O)O)CC2)cc1`, the “hERG current change (%, negative = inhibition) at 1uM” value is recorded as -5.09%. For `COc1cccc(/C=N/NC(=O)c2ccccc2NC(=O)c2ccco2)c1OC`, the “hERG current change (%, negative = inhibition) at 1uM” value is recorded as 13.4%. Consider `CCOCCCNC(=O)c1ccc(Br)cc1`, for which the “hERG current change (%, negative = inhibition) at 1uM” value is 18.1%. As for `Cc1noc(C)c1C(=O)Nc1nc(-c2ccc(F)cc2)cs1`, the “hERG current change (%, negative = inhibition) at 1uM” value worked out at 12.8%. With `COC(=O)c1sc(NC(=S)NC(=O)c2ccc(F)cc2)nc1C`, the “hERG current change (%, negative = inhibition) at 1uM” value came out at 14.2%. For `O=C1COc2ccc(S(=O)(=O)CCC(=O)N3CCN(c4ccccc4)CC3)cc2N1`, the “hERG current change (%, negative = inhibition) at 1uM” value is recorded as 4.58%. As for `Cc1cccc(NS(=O)(=O)c2ccc(C(=O)N3CCCC3)cc2)c1C`, the “hERG current change (%, negative = inhibition) at 1uM” value came out at 2.92%. Regarding `COc1cccc(CNC(=O)C2CCN(S(=O)(=O)c3ccc4c(c3)NC(=O)CO4)CC2)c1`, the “hERG current change (%, negative = inhibition) at 1uM” value was found to be 10.2%. Regarding `CC(=O)c1cc2c(cc1NS(=O)(=O)c1ccc3c(c1)OCCO3)OCO2`, the “hERG current change (%, negative = inhibition) at 1uM” value came to 0.659%. Take `O=C(COc1cccc(Br)c1)N/N=C/C(=O)c1ccccc1`: the “hERG current change (%, negative = inhibition) at 1uM” value is recorded as 9.07%.

For the molecule `Cc1ccccc1CNC(=O)Cn1cnc(S(=O)(=O)N2CCCC2)c1`, the “hERG current change (%, negative = inhibition) at 1uM” value is 12.8%. Regarding `CC(=O)N1CCN(C(=O)c2cc(C)nc3ccccc23)CC1`, the “hERG current change (%, negative = inhibition) at 1uM” value turned out to be 9.05%. Turning to `COc1cc(/C=N/NC(=O)c2cc(-c3ccco3)nc3ccccc23)cc(OC)c1O`, the “hERG current change (%, negative = inhibition) at 1uM” value is 10.2%.

On to `COc1cc(CNC(C)(C)CO)cc(Br)c1OCc1ccccc1.Cl`, for which the “hERG current change (%, negative = inhibition) at 1uM” value was 8.67%.

Regarding `CC(C)(C)NC(=O)C(=O)NNC(=O)c1cccc(F)c1`, the “hERG current change (%, negative = inhibition) at 1uM” value is given as 13%.

For the molecule `CC1(C)CC(=O)C(C=NCCN2CCN(C3CC(=O)N(c4cccc(Br)c4)C3=O)CC2)=C(O)C1` (stereo not shown), the “hERG current change (%, negative = inhibition) at 1uM” value amounted to 2.16%. On to `CCCCCCn1nc(C(=O)OCC(=O)NC2CCS(=O)(=O)C2)c2ccccc2c1=O` (stereo not shown), for which the “hERG current change (%, negative = inhibition) at 1uM” value was -9.6%. As for `CC(C)NC(=O)NC(=O)COC(=O)c1c2c(nc3ccccc13)CCC2`, the “hERG current change (%, negative = inhibition) at 1uM” value is listed as 3.78%. Take `COc1ccc(N/C(=N\c2nc(C)cc(C)n2)NC(=O)C(C)C)cc1OC`: the “hERG current change (%, negative = inhibition) at 1uM” value is reported as 16.4%. Consider `COc1ccc(Cn2c(N)c(C(=O)NCc3ccco3)c3nc4ccccc4nc32)cc1`, for which the “hERG current change (%, negative = inhibition) at 1uM” value was -0.563%. In the case of `Cc1c(NC(=O)C2CCCCN2S(=O)(=O)c2ccc(Cl)cc2)c(=O)n(-c2ccccc2)n1C` (stereo not shown), the “hERG current change (%, negative = inhibition) at 1uM” value was 17.3%. The same measure for `CC1CC(C)CN(CCCNC(=O)Cn2cccc2C(=O)c2ccccc2)C1` (stereo not shown): -25%. Take `COc1ccc(-c2noc(CCC(=O)NCc3ccco3)n2)cc1`: the “hERG current change (%, negative = inhibition) at 1uM” value is listed as 13.9%. On to `COC(=O)c1sccc1OCc1cccc(OC)c1`, for which the “hERG current change (%, negative = inhibition) at 1uM” value stood at 7.62%. Consider `Clc1ccc2noc(-c3ccccc3)c2c1`, for which the “hERG current change (%, negative = inhibition) at 1uM” value amounted to 6.82%. On to `COc1cccc(CNC(=O)Cn2cc3c(n2)CCCCC3)c1`, for which the “hERG current change (%, negative = inhibition) at 1uM” value amounted to 3.83%. `NC(=O)CN1CCN(S(=O)(=O)c2ccc(Cl)cc2)CC1`: the “hERG current change (%, negative = inhibition) at 1uM” value is listed as 11.1%. In the case of `COc1ccc(NC(=O)CCC(=O)Nc2ccc3nc(N4CCOCC4)cc(C)c3c2)c(OC)c1`, the “hERG current change (%, negative = inhibition) at 1uM” value worked out at 13.7%. The same measure for `COc1cccc(OC)c1C(=O)NC(=S)NCc1cccnc1`: 13%; for `CCn1c(=O)cc(C(=O)OC)sc1=Nc1ccc(F)c(F)c1`: -11.1%.
